# Assay results published in paper PMC4336329 (PLoS ONE, 2015).
# Screen size: about 310,000 compounds; about 14,000 (4.5%) showed an effect of 50% or more. Effects have a minus sign here. Some of the results follow.
# Biological target: human ether-à-go-go-related gene (hERG) potassium channel (human, UniProt Q12809)
# Test: primary screen, population patch clamp on CHO cells stably expressing hERG
# 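Note: peak tail current of the secondary pulse compared with the same well before compound.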
# human ether-à-go-go-related gene (hERG) potassium channel, sequence (Q12809 whole entry, looked up): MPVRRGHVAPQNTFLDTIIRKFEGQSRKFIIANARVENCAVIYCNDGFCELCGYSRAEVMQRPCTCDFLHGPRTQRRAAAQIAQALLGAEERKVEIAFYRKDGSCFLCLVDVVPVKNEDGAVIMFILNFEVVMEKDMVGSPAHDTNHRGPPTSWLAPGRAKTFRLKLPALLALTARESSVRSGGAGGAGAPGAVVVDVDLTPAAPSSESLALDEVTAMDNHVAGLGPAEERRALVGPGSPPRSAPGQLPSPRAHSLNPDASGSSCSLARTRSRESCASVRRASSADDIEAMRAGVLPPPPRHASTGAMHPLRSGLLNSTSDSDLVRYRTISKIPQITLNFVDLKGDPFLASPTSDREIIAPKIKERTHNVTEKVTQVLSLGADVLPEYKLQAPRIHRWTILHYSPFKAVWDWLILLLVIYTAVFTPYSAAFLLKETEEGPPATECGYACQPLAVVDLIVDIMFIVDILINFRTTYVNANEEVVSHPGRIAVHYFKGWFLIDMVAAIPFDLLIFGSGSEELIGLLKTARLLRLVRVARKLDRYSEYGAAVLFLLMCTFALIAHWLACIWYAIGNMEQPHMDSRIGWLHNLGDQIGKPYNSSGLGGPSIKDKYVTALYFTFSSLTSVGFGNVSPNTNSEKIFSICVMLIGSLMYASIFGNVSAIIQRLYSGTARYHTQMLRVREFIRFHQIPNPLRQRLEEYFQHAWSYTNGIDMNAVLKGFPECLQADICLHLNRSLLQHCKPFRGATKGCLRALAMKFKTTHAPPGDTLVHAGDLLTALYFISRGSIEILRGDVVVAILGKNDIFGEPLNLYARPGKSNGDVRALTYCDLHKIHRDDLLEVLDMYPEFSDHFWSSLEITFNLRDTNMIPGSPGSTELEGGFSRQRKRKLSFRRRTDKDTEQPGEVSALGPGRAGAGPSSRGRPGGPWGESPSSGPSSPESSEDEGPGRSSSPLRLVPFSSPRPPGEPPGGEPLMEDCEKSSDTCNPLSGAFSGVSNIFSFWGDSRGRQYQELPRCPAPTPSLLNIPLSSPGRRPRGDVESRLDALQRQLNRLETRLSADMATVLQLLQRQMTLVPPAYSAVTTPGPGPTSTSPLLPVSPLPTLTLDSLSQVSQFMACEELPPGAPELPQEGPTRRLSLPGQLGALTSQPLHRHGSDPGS
row,SMILES,"hERG current change (%, negative = inhibition) at 10uM [%]"
1,COc1ccc(C2c3ccc(O)cc3Oc3ncn(Cc4ccco4)c(=N)c32)cc1OC (stereo not shown),-74.4
2,CCOC(=O)C1CCCN(C(=O)c2[nH]c3ccc(OC)cc3c2C)C1 (stereo not shown),15.8
3,c1ccc(COc2ccc3nocc3c2)cc1,-2.43
4,COCCNc1nc2nonc2nc1N(C)Cc1cccc2cnccc12,-16.9
5,O=C(Nc1nccs1)c1ccc[nH]c1=O,13
6,COc1cccc(CN2CC=C(c3ccc(F)cc3)CC2)c1,-26.5
7,Cc1ccsc1/C=N/NC(=O)CNC(=O)c1cccc([N+](=O)[O-])c1C,22.5
8,O=C(Nc1ccccc1)c1ccc(-c2ccc([N+](=O)[O-])cc2)o1,4.73
9,Cc1ccc(SCC(=O)Nc2nncs2)cc1,11.7
10,O=C(CN(C(=O)CCC(=O)Nc1nccs1)c1ccc(F)cc1)NCc1ccc2c(c1)OCO2,9.18
11,CCC(=O)N(CC(=O)Nc1sc(C)c(C)c1C(N)=O)C1CCCCC1,4.91
12,CSc1ccc(/C=C(/NC(=O)c2ccccc2)C(=O)NCCCn2ccnc2)cc1,-60.8
13,Cn1c(O)c(C=NC2C(=O)C3(C)CCC2C3(C)C)c(=O)n(C)c1=O (stereo not shown),-0.548
14,Cc1cccc2c(C(=O)N3CCN(c4ccccc4)CC3)cc(-c3ccncc3)nc12,-15.9
15,C=CCN(c1ccc(C(=O)NCCN2CCOCC2)cc1)S(C)(=O)=O,-17.9
16,O=C(O)c1cc(O)ccc1-c1ccc(O)cc1,12.3
17,CCOC(=O)N1CCC2(CC1)C(C#N)=C(N)Oc1c2c(C)nn1-c1cccc(Cl)c1,-1.45
18,O=C(O)CCSc1nc2ccc(Br)cc2[nH]1,8.75
19,O=C(CNC(=O)c1ccccc1Cl)c1ccccc1,21.6
20,FC(F)(F)c1nc(-c2cccnc2)ncc1-c1nnnn1-c1ccccc1,8.46
21,C=CCn1c(SCC(=O)Nc2cccc3ccccc23)nc(O)c(CC)c1=O,3.7
22,CC(=O)NCc1ccc(C(=O)CSc2nnc(-c3ccncc3)n2Cc2ccccc2)o1,1.6

row,SMILES,"hERG current change (%, negative = inhibition) at 10uM [%]"
1,Cc1ccc(Nc2nc(CSc3nnc(-c4cccnc4)n3-c3ccccc3C)cs2)cc1,-36.4
2,CCN(Cc1ccccc1)C(=O)COC(=O)Cn1cnc2ccccc21,18
3,O=C(Nc1ccc2ccccc2c1)c1cccnc1,-12
4,CCn1ccnc1CN(C)Cc1cn[nH]c1-c1ccc(OC)c(F)c1,-13.9
5,Cc1cccc(CN2CCN(CC(=O)N3CCC4(CC3)OCCO4)C2=O)c1,21.1
6,CNS(=O)(=O)c1c(C)cc(C)c(N(C)S(=O)(=O)c2ccccc2)c1C,2.72
7,O=C(COC(=O)CC(c1ccccc1)c1ccccc1)NCc1ccc(Cl)cc1,-7.81
8,CN(C)c1ccc(N=Nc2ccccc2C(=O)OCC(=O)NC2CCCC2)cc1,0.517
9,O=C(NC(Cc1ccccc1)C(=O)N1CCC2(CC1)OCCO2)C1CCCCC1 (stereo not shown),-2.45
10,CC1CCCN(CCCNC(=O)c2nn(C)c3c2CSc2ccccc2-3)C1 (stereo not shown),-72.5
11,O=C(Nc1nc2ccc(S(=O)(=O)N3CCCC3)cc2s1)C1CCCO1 (stereo not shown),-1.91
12,CCOC(=O)c1ccc2ncc(C(=O)OCC)c(Nc3ccc(N4CCOCC4)cc3)c2c1,-13.4
13,Cn1cnnc1SCc1ccc(C(=O)N/N=C/c2cccs2)cc1,4.87
14,CN(Cc1ccccc1)S(=O)(=O)c1ccc(S(=O)(=O)N(Cc2ccc(F)cc2)C2CCCC2)cc1,-8.16
15,CCC(=O)N1CCN(c2ccccc2NC(=O)c2ccc(OC)c(Cl)c2)CC1,-11.6
16,COc1ccccc1-n1c(C)nc2cc(C(=O)NCC3CCCO3)ccc21 (stereo not shown),-23.6
17,O=C(NCC1CCCN(Cc2cccc(OCCO)c2)C1)c1ccc(F)cc1 (stereo not shown),-16.3
18,Cc1cc(C)c2[nH]c(=O)c(CN(CC3CCCO3)S(=O)(=O)c3ccc4c(c3)OCCO4)cc2c1 (stereo not shown),3.84
19,O=C(CSc1ncnc2c1oc1ccccc12)NCc1ccco1,-12.4
20,Cc1nn(-c2ccc([N+](=O)[O-])cc2)c(N)c1-c1ccccc1,-19.1
21,CC1Cc2cc(S(=O)(=O)N3CCN(c4ccccc4)CC3)ccc2N1C(=O)C1CC1 (stereo not shown),20.4
22,CCSc1nnc(NC(=O)c2nc3nc(C)cc(C)n3n2)s1,13.1

row,SMILES,"hERG current change (%, negative = inhibition) at 10uM [%]"
1,Cc1ccc(C(=O)NCCCNC(=O)c2ccco2)cc1,7.23
2,COc1ccc(C(O)P(=O)(OC2CCCCC2)c2ccc(N(C)C)cc2)cc1OC (stereo not shown),-7.44
3,Cc1cc(=O)oc2cc(OCC(=O)NCCc3c[nH]c4ccc(F)cc34)ccc12,21.4
4,O=C(O)c1ccccc1NC(=O)c1ccccc1Nc1ccccc1,22
5,CCN(CC)c1ccc2cc(-c3nc(-c4ccc(OC)cc4)cs3)c(=O)oc2c1,3.63
6,CCOc1cc(C(=O)NN2CCOCC2)cc(OCC)c1OCC,35.2
7,CC1(c2cccc(Br)c2)NC(=O)N(CC(=O)Nc2cccnc2Cl)C1=O (stereo not shown),14.6
8,Oc1ccc(C[C@H]2CNCCN2CC2(c3ccccc3)CC2)cc1,-33.5
9,O=C(NCc1ccncc1)C1CCCN(S(=O)(=O)c2ccc(Br)cc2)C1 (stereo not shown),-77.5
10,COCC1CCN(C(=O)c2cc(COc3ccc(OC)c4ccccc34)on2)C1 (stereo not shown),-18.6
11,CCOC(=O)CN1NC2(CCCCC2)NC1=S,26.6
12,Cc1sc2ncn(CC(=O)N3CCN(c4ccccn4)CC3)c(=O)c2c1S(=O)(=O)N1CCC(C)CC1,-8.84
13,Cc1ccc2nc3c(cc(C(=O)NC4CCCCC4)c(=N)n3C3CCCCC3)c(=O)n2c1,-74.7
14,CSc1ncc(Cl)c(C(=O)Nc2ccc(C)c(C)c2)n1,13.4
15,COc1ccc(N2C(=O)CSC2c2cccc(F)c2)cc1 (stereo not shown),15.3
16,CCN=C1S/C(=C\c2cn(CC(=O)NCCOC)c3ccccc23)C(=O)N1CC,-0.703
17,COc1ccc(C2CC(C)(c3ccc(OC)cc3)Nc3ccccc3N2)cc1 (stereo not shown),3.39
18,CC(C)(C)C1CCC(C(=O)NCCc2ccc(S(N)(=O)=O)cc2)CC1 (stereo not shown),15.4
19,COc1ccc(NC(=O)CCNC(=O)C2CCN(S(=O)(=O)c3ccc(F)cc3)CC2)cc1OC,9.22
20,O=C(c1c[nH]c2ccccc2c1=O)N1CCCCCC1,11.6
21,COc1ccc(CCNCC(O)c2ccccc2)cc1.O=C(O)C(=O)O (stereo not shown),-11.4
22,C/C(N)=C(/C#N)C(=O)CSc1nc2scc(-c3ccc(F)cc3)c2c(=O)n1C,-0.806

row,SMILES,"hERG current change (%, negative = inhibition) at 10uM [%]"
1,Cn1cc(C(=O)N/N=C/c2cccs2)c2ccccc21,-28.8
2,CCc1ccc(N/C(SCc2cccc(F)c2)=C(/C#N)C(=O)NCc2ccco2)cc1,11.7
3,Cc1ccccc1C(=O)NNC(=S)Nc1cccc(C(F)(F)F)c1,-3.18
4,CC(C)COP(=O)(c1ccc(N(C)C)cc1)C(O)c1cccnc1 (stereo not shown),3.26
5,O=C(CCN1CCOCC1)c1ccc2c(c1)OCCO2,9.96
6,CCSc1nnc(NC(=O)COc2ccc3ccccc3c2)s1,5.6
7,O=C(Nc1cccc(-c2nc3ccccc3s2)c1)c1ccc2c(c1)OCO2,-35.5
8,CC(NCC(=O)Nc1ccccc1C(=O)NC1CC1)c1cccc(C(F)(F)F)c1 (stereo not shown),-34.5
9,Cc1ccc(NC(=O)CN2C(=O)CSC2=O)cc1,9.05
10,CC(Sc1nnc(Cc2ccc([N+](=O)[O-])cc2)o1)C(N)=O (stereo not shown),-7.47
11,CCC(=O)N(Cc1ccco1)c1nc(C(=O)Nc2ccc(Cl)cc2)c(C)s1,-5.99
12,O=C(COC(=O)/C=C/c1ccccc1Cl)NC1CCCCCC1,31.4
13,COc1ccc2[nH]cc(C(=O)CN3CC(C)CC(C)C3)c2c1 (stereo not shown),-3.25
14,Cc1cccc(NC(=O)c2cc(=O)[nH]c3ccccc23)c1,6.25
15,O=C(CNC(=O)c1cccs1)NCC(=O)OCc1ccccc1Br,-12.1
16,COc1ccc(NS(=O)(=O)c2ccc3c(c2)Cc2ccccc2-3)cn1,5.85
17,COc1ccc(S(=O)(=O)Nc2ccc3c(c2)OCCO3)cc1OC,11.9
18,COc1ccc(C(=O)N2CCN(C(=O)C3COc4ccccc4O3)CC2)cc1OC (stereo not shown),-30.3
19,CCN(CC)S(=O)(=O)c1ccc(-c2csc(C)n2)s1,-0.336
20,CCn1c(SCC(=O)c2cc(C)n(C)c2C)nnc1-c1ccccc1,3.91
21,CCC(C)OC(=O)C(C)Oc1ccc(-c2ccccc2)cc1 (stereo not shown),2.51
22,O=C(Nc1cccc(S(=O)(=O)Nc2ccc(Cl)cc2)c1)c1ccc[n+]([O-])c1,8.99
